Experimental data as given in the supplement of paper PMC4967469.
pIC50: −log10 of the molar value. By IC50 is meant the dose at which the fit gives 50% viability; a limit (>, <) means that the fit lies beyond the doses tested. AUC is the area under the same curve over the 256-fold range up to the top dose, as a fraction: 1 means no effect, lower means more sensitive. For part of these data: Any top dose called inferred is not printed in the source and was worked back from the curve model.

Columns and labels:
Experiment in all cases: Viability of human cancer cell lines after 72 h of drug (GDSC screen)
[1] = compound: CN(C)C/C=C/C(=O)Nc1ccc(C(=O)Nc2cccc(Nc3nccc(-c4cccnc4)n3)c2)cc1 [ZG-10]; details: top dose 10 µM; top dose inferred
Experimental: (§1)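 Human cancer cell lines in 384-well plates, medium with 10% serum, drug for 72 h over a 256-fold dose range (nine 2-fold or five 4-fold steps up to the top dose). Adherent lines were fixed and stained with the nucleic acid dye Syto60, suspension lines read with resazurin; signal relative to control wells, capped at 0 and 100%. One two-parameter sigmoid per drug and line, fitted in a mixed model over all curves with the slope shared within a line.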

[2] = compound: CN1CCc2c(c3ccccc3n2Cc2ccc(C(=O)NO)cc2)C1 [Tubastatin A]; details: top dose 20 µM
Experimental: as §1

[3] = compound: COc1cc2c(Oc3ccc(NC(=O)C4(C(=O)Nc5ccc(F)cc5)CC4)cc3F)ccnc2cc1OCCCN1CCOCC1 [XL-880]; details: top dose 5.12 µM; top dose inferred
Experimental: as §1

[4] = compound: Cn1nnc2c(C(N)=O)ncn2c1=O [Temozolomide]; details: top dose 30 µM
Experimental: as §1

[5] = compound: O=C(NOCC1CC1)c1ccc(F)c(F)c1Nc1ccc(I)cc1Cl [CI-1040]; details: top dose 10 µM; top dose inferred
Experimental: as §1

Cell Line | AUC [1] | pIC50 [1] | AUC [2] | pIC50 [2] | AUC [3] | pIC50 [3] | AUC [4] | pIC50 [4] | AUC [5] | pIC50 [5]
RCC-ER (kidney, adherent) | 0.75 | 5.44 | 0.982 | < 4.70 | 0.768 | 5.67 | 0.984 | < 4.52 | 0.845 | 5.07
TE-4 (oesophagus, adherent) | 0.615 | 5.89 | 0.984 | < 4.70 | 0.845 | 5.43 | 0.971 | < 4.52 | 0.891 | < 5.00
SNU-C5 (large intestine, adherent) | 0.756 | 5.43 | 0.986 | < 4.70 | 0.73 | 5.81 | 0.984 | < 4.52 | 0.812 | 5.22
RCC-MF (kidney, adherent) | 0.818 | 5.10 | 0.823 | 4.78 | 0.633 | 6.08 | 0.956 | < 4.52 | 0.778 | 5.27
D-566MG (glioma, adherent) | 0.692 | 5.67 | 0.983 | < 4.70 | 0.562 | 6.33 | 0.96 | < 4.52 | 0.754 | 5.48
DOV13 (ovary, adherent) | 0.613 | 5.87 | 0.969 | < 4.70 | 0.748 | 5.73 | 0.979 | < 4.52 | 0.794 | 5.27
Hey (ovary, adherent) | 0.681 | 5.71 | 0.924 | < 4.70 | 0.646 | 6.10 | 0.97 | < 4.52 | 0.716 | 5.61
SK-GT-2 (stomach, adherent) | 0.782 | 5.35 |  |  |  |  | 0.983 | < 4.52 | 0.925 | < 5.00
SNU-407 (large intestine, adherent) | 0.72 | 5.53 | 0.978 | < 4.70 | 0.61 | 6.17 | 0.975 | < 4.52 | 0.726 | 5.51
NCI-H630 (large intestine, adherent) | 0.957 | < 5.00 | 0.966 | < 4.70 | 0.819 | 5.50 | 0.987 | < 4.52 | 0.883 | < 5.00
OACp4C (oesophagus, adherent) | 0.775 | 5.32 | 0.884 | < 4.70 | 0.505 | 6.48 | 0.965 | < 4.52 | 0.802 | 5.21
PWR-1E (prostate, adherent) | 0.758 | 5.46 |  |  |  |  | 0.983 | < 4.52 | 0.88 | < 5.00
PEO1 (ovary, adherent) | 0.613 | 5.89 | 0.978 | < 4.70 | 0.636 | 6.11 | 0.985 | < 4.52 | 0.91 | < 5.00
ESO26 (oesophagus, adherent) | 0.686 | 5.70 | 0.971 | < 4.70 | 0.661 | 6.06 | 0.987 | < 4.52 | 0.952 | < 5.00
Jurkat (T-cell leukaemia, suspension) | 0.632 | 5.87 |  |  |  |  | 0.982 | < 4.52 | 0.957 | < 5.00
RCC-AB (kidney, adherent) | 0.801 | 5.17 | 0.901 | < 4.70 | 0.54 | 6.37 | 0.977 | < 4.52 | 0.978 | < 5.00
OV-56 (ovary, adherent) | 0.845 | 5.17 | 0.983 | < 4.70 | 0.815 | 5.58 | 0.988 | < 4.52 | 0.833 | 5.22
ESO51 (oesophagus, semi-adherent) | 0.93 | < 5.00 | 0.867 | < 4.70 | 0.107 | > 7.70 | 0.968 | < 4.52 | 0.795 | 5.16
FLO-1 (oesophagus, adherent) | 0.551 | 6.04 | 0.957 | < 4.70 | 0.563 | 6.29 | 0.972 | < 4.52 | 0.899 | < 5.00
KMRC-20 (kidney, adherent) | 0.9 | < 5.00 | 0.986 | < 4.70 | 0.78 | 5.67 | 0.987 | < 4.52 | 0.849 | 5.11
SK-GT-4 (oesophagus, adherent) | 0.856 | < 5.00 | 0.965 | < 4.70 | 0.637 | 6.08 | 0.966 | < 4.52 | 0.626 | 5.82
OVK-18 (ovary, adherent) | 0.754 | 5.43 | 0.98 | < 4.70 | 0.864 | < 5.29 | 0.977 | < 4.52 | 0.651 | 5.76
YH-13 (glioma, adherent) | 0.68 | 5.69 | 0.985 | < 4.70 | 0.507 | 6.48 | 0.985 | < 4.52 | 0.881 | < 5.00
CADO-ES1 (Ewing sarcoma, suspension) | 0.967 | < 5.00 | 0.894 | < 4.70 | 0.459 | 6.61 | 0.985 | < 4.52 | 0.966 | < 5.00
EMC-BAC-2 (lung adenocarcinoma, adherent) | 0.58 | 5.97 | 0.936 | < 4.70 | 0.61 | 6.17 | 0.97 | < 4.52 | 0.849 | 5.01
NCC021 (kidney, adherent) | 0.916 | < 5.00 | 0.962 | < 4.70 | 0.57 | 6.29 | 0.983 | < 4.52 | 0.927 | < 5.00
DIFI (large intestine, adherent) | 0.79 | 5.33 |  |  |  |  | 0.986 | < 4.52 | 0.798 | 5.30
JHOS-2 (ovary, adherent) | 0.694 | 5.62 | 0.942 | < 4.70 | 0.66 | 6.02 | 0.966 | < 4.52 | 0.682 | 5.66
